Measured values from PubChem BioAssay AID504832 (National Center for Advancing Translational Sciences (NCATS), 2011).
Hit rate of the full screen: of about 310,000 compounds, about 18,000 (5.8%) were called active. Inconclusive means that the source gave no clear call. Such entries were picked first, then a sample of the others. Calls come from the whole dose curve; as a rule, active = well fitted inhibition curve with a large enough effect; inconclusive = small, poorly fitted or top-dose-only effect, or another doubt; inactive = no such curve, though single readings can be large or run the other way. No potency is given beside an inconclusive call; the fits are too rough.

test: Primary qHTS for delayed death inhibitors of the malarial parasite plastid, 48 hour incubation; details: P. falciparum luciferase growth in erythrocytes; series mostly up to 28.7 µM; activity change, negative = inhibition: at the top concentration
How it was run: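 Compounds are pin-transferred into medium, infected erythrocytes (2% hematocrit, 0.1% parasitemia final) are added, and plates sit one parasite generation at 37 C in 5% CO2. Detection reagent is then added and luminescence measured.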
% is set by controls: 0 for no effect and ±100 for the full control effect; potency is the fitted concentration of half-maximal effect; tags give direction and shape of the fitted curve.

SMILES	activity change, negative = inhibition	Potency
OCCC1CN(Cc2ccc3ncccc3c2)CCN1Cc1ccccc1 (stereo not given)	inactive: -4.5%	–
CC(C)(C)OC(=O)NCCCC[C@H](NC(=O)c1nc[nH]c1C(=O)N1CCN(c2ccccc2)CC1)C(=O)OC(C)(C)C	–	active: 11.7 µM
Cc1ccc(NC(=O)c2ccc3c(c2)OCCO3)cc1C	inactive: 182%	–
CCCN(C(=O)C1=COCCO1)c1c(N)n(Cc2ccccc2)c(=O)[nH]c1=O	inactive: 9.78%	–
Cc1cc2nc(-c3ccc(SCC(=O)N4CCOCC4)nc3)[nH]c2cc1C	inactive: -88.6%	–
COc1ccc(-c2nn3c(-c4ccccn4)nnc3s2)cc1OC	–	inconclusive [inhibitor, single point]
O=C(Nc1ccc(Cl)c(C(F)(F)F)c1)NC1CC2CCCC(C1)N2Cc1ccccc1 (stereo not given)	–	inconclusive [inhibitor, single point]
CCCCCOc1ccc(N2C(=O)CC(N(O)c3ccccc3)C2=O)cc1 (stereo not given)	inactive: 21.5%	–
N=c1c2c(-c3ccccc3)c(-c3ccccc3)n(Cc3ccco3)c2ncn1CCCO	–	inconclusive [inhibitor, partial curve, poor fit]
CCCCCCc1cc2cc(-c3nnc(-c4cc(OC)c(OC)c(OC)c4)o3)c(=O)oc2cc1O	inactive: 3.3%	–
O=C(CCCCCN1C(=O)c2cccc3cccc(c23)C1=O)NCCCO	–	inconclusive [inhibitor, partial curve]
CC(C)(C)OC(=O)N[C@H](C(=O)OC(C)(C)C)c1ccc(C(F)(F)F)cc1	–	inconclusive [inhibitor, single point]
CCCCNC(=O)CCCCn1c(=S)[nH]c2c([nH]c3ccc(OC)cc32)c1=O	–	inconclusive [inhibitor, single point]
Cc1ccc(O)c(C(=O)c2cnc3c(c2)CN(CCC(C)C)C(=O)N3)c1	–	active: 2.94 µM
CSc1ccc(C(=O)C2CCCN(C(=O)c3nonc3C)C2)cc1 (stereo not given)	–	active: 14.7 µM
CC(C#N)(NC(=O)CN1CCN(S(=O)(=O)c2cc(C(F)(F)F)ccc2Cl)CC1)C1CC1 (stereo not given)	–	inconclusive [inhibitor, single point]
CN(C)S(=O)(=O)c1cccc(NC(=S)N/N=C/C(=O)c2ccccc2)c1	–	inconclusive [inhibitor, single point]
COC(=O)Nc1ccc(S(=O)(=O)Nc2ccccc2F)cc1	–	inconclusive [inhibitor, single point]
CCN(c1ccccc1)S(=O)(=O)c1ccc(OC)c(NC(=O)c2ccccc2OC)c1	–	inconclusive [inhibitor, single point]
O=C(Nc1cccnc1)Nc1ccccn1	inactive: 18.3%	–
O=C(NCC(=O)N(CCN1CCOCC1)C(C(=O)NC1CCCC1)c1ccccc1)c1cccs1 (stereo not given)	inactive: -11.3%	–
COc1ccccc1CNc1ccc2c(c1)CCC2	–	inconclusive [inhibitor, single point]
CC(=O)c1ccc(N2CCN(C(=O)CCc3ccccc3)CC2)cc1	–	inconclusive [inhibitor, partial curve, poor fit]

SMILES	activity change, negative = inhibition	Potency
C=COc1ccc(N2C(=O)c3ccccc3OC2C)cc1 (stereo not given)	inactive: 14.5%	–
COc1ccccc1NC(=O)C(=O)N(c1cccnc1)C(C(=O)NC(C)(C)C)c1ccccc1F (stereo not given)	–	inconclusive [inhibitor, single point]
COCC(=O)Nc1ccc(N2CCCC2)c(S(=O)(=O)Nc2ccccc2OC)c1	–	active: 2.62 µM
COc1ccc(C(=O)/C=C2\Sc3ccccc3N2C)cc1	inactive: 31.2%	–
COc1cccc(CNC(=O)COC(=O)c2c(C)nn(-c3ccccc3)c2Cl)c1	–	inconclusive [inhibitor, partial curve]
CCOC(=O)C1CCCN(c2c(C(=O)c3ccccc3)cnc3ccc(OC)cc23)C1 (stereo not given)	–	inconclusive [inhibitor, single point]
COc1ccccc1C(=O)NCC(=O)N1CC=C(c2ccccc2)CC1	–	inconclusive [inhibitor, single point]
O=C(NCc1ccccn1)c1cc(-c2ccncc2)nc2ccccc12	–	inconclusive [inhibitor, single point]
CC1(C)Cc2cccc(OCC(=O)OCC(=O)Nc3cccc(S(N)(=O)=O)c3)c2O1	inactive: -6.41%	–
COc1cccc(OC)c1C(=O)NC(=S)Nc1ccc2oc(=O)ccc2c1	–	active: 3.29 µM
CCC(=O)Nc1ccc(NC(=O)CSc2nc3cc4c(cc3cc2C)CCC4)cc1	–	inconclusive [inhibitor, single point]
Cc1ccc(NS(=O)(=O)c2cc(C(=O)Nc3cccnc3)ccc2C)cc1	–	inconclusive [inhibitor, single point]
CCN(CC(=O)Nc1ccc(NC(C)=O)cc1)C(=O)c1cccc(S(=O)(=O)N2CCCC2)c1	inactive: 6.2%	–
COC(=O)c1sccc1NC(=O)C1CC1	inactive: 33.2%	–
Cc1ccc(-c2csc3nc[nH]c(=S)c23)cc1	–	inconclusive [inhibitor, single point]
Cc1ccc(S(=O)(=O)NC2=C(N3CCN(c4ccccc4F)CC3)C(=O)c3ccccc3C2=O)cc1	–	inconclusive [inhibitor, partial curve]
COc1cc2c(cc1OC)C(/C=C/c1ccco1)=NCC2	–	inconclusive [inhibitor, partial curve]
CN(C)C=NC(=O)c1[nH]c2ccc(Cl)cc2c1-c1ccccc1	–	inconclusive [inhibitor, partial curve, poor fit]
CCOc1cc(C(=O)Nc2cc(C)on2)cc(OCC)c1OCC	–	inconclusive [inhibitor, single point]
CCc1noc(C)c1C(=O)N1CCCC(N2CCN(c3cccc(Cl)c3)CC2)C1 (stereo not given)	–	inconclusive [inhibitor, partial curve]
O=C(NCc1cccnc1)c1ccc(Cl)c(S(=O)(=O)Nc2ccccc2C(=O)NCc2cccnc2)c1	–	inconclusive [inhibitor, partial curve]
COc1nc(NCCc2ccc(OC)c(OC)c2)nc(Nc2ccccc2)n1	–	inconclusive [inhibitor, single point]
